PubChem BioAssay AID504845 (National Center for Advancing Translational Sciences (NCATS), 2011)
Where “and” joins values, the source holds several entries; their conditions need not be identical. Equal entries are not always repeated. Hit rate of the full screen: of about 390,000 compounds, about 150 (0.038%) were called active. Roughly 3% stayed inconclusive and do not appear here. Calls come from the whole dose curve; as a rule, active = well fitted inhibition curve with a large enough effect; inconclusive = small, poorly fitted or top-dose-only effect; inactive = no such curve, though single readings can be large or run the other way. This is a selection; strong and weak results do not stand in their true shares. Some structures have more than one record in an assay (separate samples or runs), and their calls can disagree. Starred links: 1 amine or outer side, 2 acyl side, 3 side chain; linkers in the order of their positions; H or OH if unused. Non-standard residues stand in square brackets, D forms with d. Residues, ends and D or L forms follow the SMILES beside them. X2 = C[C@H](O)[C@@H](C(=O)[*:2])N(C(C)(C)C)[*:1]; X1 = CC(C)(C)N([C@@H](CS)C(=O)[*:2])[*:1]

Target: Regulator of G-protein signaling 4 (Homo sapiens) (UniProt P49798)
Assay: Inhibitors of Regulator of G Protein Signaling (RGS) 4: qHTS; note: nearly all actives have a fitted effect of over 75% in size
Details: Transcreener GDP fluorescence polarization, RGS4-accelerated GTP hydrolysis; series mostly up to 114 µM; activity change, negative = inhibition: at the top concentration
Excerpt: G-protein-coupled receptors (GPCRs) are well-established targets for drug discovery and development. Members of the "regulator of G-protein signaling" (RGS)-protein superfamily have recently emerged as critical modulators of specific GPCR signaling pathways. […] Combining specific RGS domain inhibitors with existing GPCR agonists should potentiate cellular responses and could also increase the specificity of action of existing therapeutics. Small molecule modulators of RGS domain activity should also have clinical utility in inhibiting or potentiating the actions of endogenous GPCR agonists. In particular, the diversity of RGS proteins with highly localized and dynamically regulated distributions in the human brain makes this family of proteins attractive targets for pharmacotherapy of central nervous system (CNS) disorders such as Parkinson's disease, schizophrenia, and anxiety.
This assay was used to screen the NIH Molecular Libraries Small Molecule Repository (MLSMR) in order to identify a small molecule that inhibits RGS4.
NIH Chemical Genomics Center [NCGC]
NIH Molecular Libraries Probe Centers Network [MLPCN]
Assay Submitter (PI): David Siderovski, University of North Carolina Chapel Hill (School of Medicine)
Two microliters of 500nM (2x working concentration) is dispensed into black medium-binding solid-bottom Kalypsys plates. Then with the Kalypsys pintool 23nl of control and compounds are transferred; the control compound is […] CCG-4986 (working concentration). After a 10 minute incubation at room temperature 2ul of antibody is added with the Kalypsys dispenser; (-)RGS4/Transcreener GDP solution in columns 3 and 4 which consisted of 10nM (2x working concentration) Alexa633, 20uM GTP, and 20 ug/ml GDP antibody and (+)RGS4/Transcreener GDP solution in columns 1,2, and 5 to 48 which consists of 900nM RGS4 (2x working concentration), 10nM Alexa633, 20 ug/ml GDP antibody. The plate is centrifuged at 1000 RPM for 15 seconds to remove any possible bubbles and then incubated for 5 minutes at ambient room temperature. An initial fluorescent polarization read (620 nm/688 nm) is performed on the Envision before the plate is incubated for 90 minutes at 30 deg C at a relative humidity of 80%. The plate is once more centrifuged at 1000 RPM for 15 seconds and another Envision fluorescent polarization (620 nm/688 nm) read is carried out.
% is set by controls: 0 for no effect and ±100 for the full control effect; potency is the fitted concentration of half-maximal effect.

UniProt P49798, sequence (P49798 whole entry, looked up): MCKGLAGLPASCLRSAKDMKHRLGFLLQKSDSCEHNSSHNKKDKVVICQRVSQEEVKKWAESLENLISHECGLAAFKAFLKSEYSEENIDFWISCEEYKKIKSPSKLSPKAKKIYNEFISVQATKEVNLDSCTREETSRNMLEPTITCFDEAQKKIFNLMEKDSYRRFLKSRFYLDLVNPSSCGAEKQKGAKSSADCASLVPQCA

Compound	activity change, negative = inhibition	Potency
C[C@H](N)Cc1cccc(C(F)(F)F)c1	inactive: 23.5% [at 56.9 µM]	–
Oc1ccc2c3c1O[C@H]1c4[nH]c5ccccc5c4C[C@@]4(O)[C@@H](C2)N(CC2CC2)CC[C@]314	inactive: -1.83%	–
CC(C)(O)[C@H]1O[C@H]2CC[C@@]3(C)[C@@](O)(CC[C@H]4Cc5c([nH]c6ccccc56)[C@@]43C)C2=CC1=O	inactive: 9.24%	–
C[N+](C)(C)CCOC(=O)CBr	–	inactive
CNCCc1ccc(O)c(O)c1	inactive: -5.13%	–
CN(N=O)c1ccc(O)c(O)c1	–	active: 5.97 µM
CCCN1CCC[C@@H]2Cc3nc(N)ncc3C[C@H]21	inactive: 4.8%	–
C=CCN1CC[C@]23c4c5ccc(O)c4O[C@H]2/C(=N/NC(=O)c2ccccc2)CC[C@@]3(O)[C@H]1C5	inactive: -35%	–
CC(C)C[C@H](NC(=O)[C@H](Cc1ccccc1)NC(=O)CNC(=O)[C@H](CS)N(C(=O)[C@@H](N)Cc1ccc(O)cc1)C(C)(C)C)C(=O)N([C@H](C(=O)O)[C@H](C)O)C(C)(C)C (H-Y[X1]GFL[X2]-OH)	inactive: 470% [at 56.9 µM]	–
C[C@H](CCC(=O)O)[C@H]1CC[C@H]2[C@@H]3[C@@H](O)C[C@@H]4C[C@H](O)CC[C@]4(C)[C@H]3CC[C@]12C	inactive: -10.8%	–
CN(C)c1ccc(/C=C/c2cc[n+](C)c3ccccc23)cc1	inactive: -18.5%	–
O=C(c1ccccc1)N1CCN(CCc2ccccc2)CC1	inactive: 57.2%	–
O=c1[nH]c2ccccc2n1CCCN1CCC(n2c(=O)[nH]c3cc(Cl)ccc32)CC1	inactive: 0.174%	–
CN(CCc1ccc(Cl)c(Cl)c1)[C@H]1CCCC[C@H]1N1CCCC1	inactive: 478% [at 56.9 µM]	–
C/C=C1/C[N+]2(C)CCC34C(=C(C=O)[C@H]1C[C@@H]32)Nc1ccccc14 (stereo not given in full)	inactive: -21.5%	–
C#CCN(C)C(C)Cc1ccccc1 (stereo not given)	inactive: 13.7%	–
O=[N+]([O-])c1ccc(C2[C@H]3C(c4ccccc4)=NC4(CCCC4)N23)cc1 (stereo not given in full)	inactive: 0.934%	–
CC(C)C[C@H]1C(=O)N2CCC[C@@H]2[C@]2(O)O[C@](NC(=O)[C@@H]3C=C4c5cccc6[nH]c(Br)c(c56)C[C@H]4N(C)C3)(C(C)C)C(=O)N12	inactive: -154% [at 56.9 µM]	–
NC(N)=NC(=O)c1nc(Cl)c(N)nc1N	–	inactive
CC[C@@H]1C(=O)OC[C@@H]1Cc1cncn1C	–	inactive
N[C@@H](Cn1oc(=O)[nH]c1=O)C(=O)O	–	inactive
CCOC(=O)c1ncn2c1CN(C)C(=O)c1cc(F)ccc1-2	–	inactive
CN(C)C1C(=O)C(C(N)=O)=C(O)[C@@]2(O)C(=O)C3=C(O)c4c(O)cccc4[C@@](C)(O)C3[C@H](O)C12 (stereo not given in full)	inactive: 129% [at 56.9 µM]	–
O=[N+]([O-])c1ccc2nc(N3CCNCC3)ccc2c1	–	inactive
CC(C)N(CCC(C(N)=O)(c1ccccc1)c1ccccn1)C(C)C (stereo not given)	–	inactive
N[C@@H](Cc1ccc(N(CCCl)CCCl)cc1)C(=O)O	inactive: -27.9%	–
CC(C)=CCOc1c2occc2cc2ccc(=O)oc12	inactive: 10.7% [at 56.9 µM]	–
Ic1ccccc1CN[C@@H]1C2CCN(CC2)[C@@H]1C(c1ccccc1)c1ccccc1	inactive: -22.7%	–

Compound	activity change, negative = inhibition	Potency
CNCC[C@@H](Oc1ccc(C(F)(F)F)cc1)c1ccccc1	inactive: -12.3%	–
C[C@H](N)CN1CCc2ccc(Br)cc21	inactive: 2.88%	–
CC(=O)N1CCN(c2ccc(OC[C@H]3CO[C@](Cn4ccnc4)(c4ccc(Cl)cc4Cl)O3)cc2)CC1	–	inactive
N#C/C(=C/c1ccc(O)c(O)c1)C(N)=S	–	active: 6.7 µM
CC[C@@]1(O)C(=O)OCc2c1cc1n(c2=O)Cc2cc3ccccc3nc2-1	–	inactive
CCC(C)/C=C(C)/C=C/C1=CC2=C(Cl)C(=O)C(C)(OC(C)=O)C(=O)C2=CO1 (stereo not given)	inactive: -22.1%	–
CN1C[C@H](C(=O)N[C@]2(C)O[C@@]3(O)[C@@H]4CCCN4C(=O)[C@H](Cc4ccccc4)N3C2=O)C[C@@H]2c3cccc4[nH]cc(c34)C[C@H]21	inactive: -7.81% [at 56.9 µM]	–
CC(CCc1ccccc1)NC(C)C(O)c1ccc(O)cc1 (stereo not given)	–	inactive
CCN1C[C@]2(COC)CC[C@H](OC)[C@@]34C1[C@]1(OCO[C@@]15C[C@H](OC)[C@H]1C[C@@H]3[C@@H]5[C@H]1OC)[C@@H](O)[C@H]24	inactive: -4.09%	–
CCCN1CCCC2Cc3nc(N)ncc3CC21 (stereo not given)	inactive: 380% [at 56.9 µM]	–
Oc1ccc2c3c1O[C@H]1c4[nH]c5c(c4C[C@@]4(O)[C@@H](C2)N(CC2CC2)CC[C@]314)C[C@@]1(O)[C@H]2Cc3ccc(O)c4c3[C@@]1(CCN2CC1CC1)[C@H]5O4	inactive: 10.9% [at 56.9 µM]	–
CN1C[C@H](C(=O)NC2(C)OC3(O)[C@@H]4CCCN4C(=O)[C@H](Cc4ccccc4)N3C2=O)CC2c3cccc4[nH]cc(c34)C[C@H]21 (stereo not given in full)	inactive: 1.91%	–
C=C1C(=O)O[C@@H]2C[C@@H](C)[C@@H]3C=CC(=O)[C@@]3(C)[C@@H](O)[C@H]12	–	active: 21.2 µM
CN1CCCCC1c1cccnc1 (stereo not given)	–	active: 37.7 µM
N[C@H](Cc1ccc(O)cc1)C(=O)O	inactive: -12.2% [at 56.9 µM]	–
COc1cc(OC)c(/C=C2\C(=O)Nc3ccccc32)c(OC)c1	inactive: 21.6%	–
CCS(=O)(=O)Nc1cccc(C(=C2CCCCC2)c2cnc[nH]2)c1	–	inactive
NCC(O)c1cc(O)c(O)cc1F (stereo not given)	–	inactive and active: 18.9 µM
C[N+]1(C)[C@@H]2CC[C@H]1CC(OC(=O)[C@@H](CO)c1ccccc1)C2 (stereo not given in full)	inactive: -33.1%	–
CC1(C(=O)O)CCCC2(C)c3cc(O)ccc3CCC12 (stereo not given)	inactive: 37%	–
Oc1ccc2c3c1O[C@H]1c4[nH]c5ccccc5c4C[C@@]4(O)C(C2)N(CC2CC2)CCC314 (stereo not given in full)	inactive: 1.32% [at 56.9 µM]	–
CC(N)Cc1c[nH]c2ccc(OCc3cccs3)cc12 (stereo not given)	inactive: -38.1%	–
CC(C)[C@@]1(NC(=O)[C@@H]2C[C@@H]3c4cccc5[nH]cc(c45)C[C@H]3N(C)C2)O[C@@]2(O)[C@@H]3CCCN3C(=O)[C@H](Cc3ccccc3)N2C1=O	–	inactive
C[N+](C)(C)CC#CCN1CCCC1=O	inactive: -31%	–
CNC(=O)Oc1ccc2c(c1)[C@@]1(C)CCN(C)[C@@H]1N2C	inactive: -183% [at 56.9 µM]	–
CN1C[C@H](C(=O)N[C@]2(C)O[C@@]3(O)[C@@H]4CCCN4C(=O)[C@H](Cc4ccccc4)N3C2=O)CC2c3cccc4[nH]cc(c34)C[C@H]21 (stereo not given in full)	–	inactive
OC(CNCCc1c[nH]c2ccccc12)C(F)(F)F (stereo not given)	inactive: 62.1%	–
